# According to PubChem BioAssay AID602332 (National Center for Advancing Translational Sciences (NCATS), 2012):
# About 75 (0.02%) of roughly 420,000 compounds were called active. The inconclusive results got no clear call from the source; some entries with a clear call stand among them for comparison. Calls follow the shape of the dose curve; as a rule, active = well fitted activation curve with a large enough effect; inconclusive = small, poorly fitted or top-dose-only effect; inactive = no such curve, though single readings can be large or run the other way. Where the call is inconclusive, the potency comes from a doubtful curve fit.
# Experiment: qHTS for Inducers of the Endoplasmic Reticulum Stress Response (ERSR) in Human Glioma: qHTS; also: nearly all actives have a fitted effect of over 35% in size; as to activation: % of control where 0% means no effect
# Details: U87-MG GRP78 promoter luciferase reporter, 16 h; activation: hits give high values
# Summary of the method: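 ERSR induction read as luciferase luminescence (Bright-Glo, 10 min at room temperature) in stably transfected human U87-MG glioma cells exposed to compounds for 16 h, using GRP78 as sensor.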
# Potency is read from the fitted curve at half-maximal effect; tags tell the direction and shape of the fitted curve.
SMILES,Potency,activation
Cc1cccc(C(=O)Nc2ccc(C(=O)OCc3cc(=O)n4c5c(sc4n3)CCCC5)cc2)c1,"inconclusive: 50.1 µM [activator, single point]",
CC(C)C(=O)SCCCCCCC(=O)Nc1nc(-c2ccccc2)cs1,"inconclusive: 7.08 µM [activator, full curve]",
Oc1ccc(Br)cc1C1C=C(c2ccc3c(c2)OCO3)NC(c2ccc(Cl)cc2)N1 (stereo not drawn),"inconclusive: 25.1 µM [activator, single point]",
N#Cc1c(NC(=O)Cn2c(=O)oc3ccccc32)oc(-c2ccccc2)c1-c1ccccc1,"inconclusive: 11.2 µM [activator, partial curve, poor fit]",
CCCNCC(=O)Nc1cccc(S(=O)(=O)NC2=NCCCCC2)c1,,inactive: -3.46%
COCC(=O)Nc1cc(C(=O)N2CCCC2c2nccs2)c2c(c1)nc(-c1ccncc1)n2C (stereo not drawn),,inactive: -2.23%
O=C(c1ccco1)N1CCC2(CCCN(C(c3ccccc3)c3ccccc3)C2)CC1,"inconclusive: 44.7 µM [activator, single point]",
CC(C)c1ccc(OCC(O)Cn2cnc3ccccc32)cc1 (stereo not drawn),"inconclusive: 20 µM [activator, single point]",
O=C(Nc1cccc2ccccc12)NC1Cc2ccccc2C1,"inconclusive: 31.6 µM [activator, single point]",
CC1(C)OC(=O)N(NCc2ccccc2)C1(C)O (stereo not drawn),"inconclusive: 17.8 µM [activator, single point]",
COc1ccccc1-c1cc(NC(C)=O)c2ncc(-c3cccc(C(C)=O)c3)n2c1,"inconclusive: 44.7 µM [activator, single point]",
CCCCCC(=O)N1C[C@@H](n2cc(C3CC3)nn2)[C@H](O)C[C@@H]1c1ccc(C)cc1,,inactive: -5.36%
Cc1c(C(=O)NCC2(c3ccccc3)CCOCC2)cnn1-c1nccc(-c2ccco2)n1,,inactive: -0.338%
CN(C)c1oc(-c2ccc(COc3ccccc3)o2)nc1C#N,,inactive: -0.382%
CCCN(CCC)CCCNC(=O)C1CCN(c2nc3ccc(CC)cc3s2)CC1,,inactive: 2.91%
CCOC(=O)C1=C(COC(=O)c2ccc([N+](=O)[O-])s2)NC(=O)NC1C (stereo not drawn),"inconclusive: 39.8 µM [activator, partial curve]",
CC(C)(C)C(=O)NC(=S)NNC(=O)c1ccc(-c2ccccc2)cc1,"inconclusive: 11.2 µM [activator, full curve, poor fit]",
COc1ccc2[nH]c(=O)c(CN(C(C)=O)C3CCCCC3)cc2c1,,inactive: 2.25%
